According to the BET-seq Pho4 binding data (Le et al. 2018):
The list shows a part of the results. The energies were worked out here from pooled read counts, against the library average; single values are noisy.

biological target: T1, Pho4 (S. cerevisiae) (UniProt P07270); experiment: relative binding free energy (BET-seq); higher = weaker binding; conditions: reference: library average
T1 sequence: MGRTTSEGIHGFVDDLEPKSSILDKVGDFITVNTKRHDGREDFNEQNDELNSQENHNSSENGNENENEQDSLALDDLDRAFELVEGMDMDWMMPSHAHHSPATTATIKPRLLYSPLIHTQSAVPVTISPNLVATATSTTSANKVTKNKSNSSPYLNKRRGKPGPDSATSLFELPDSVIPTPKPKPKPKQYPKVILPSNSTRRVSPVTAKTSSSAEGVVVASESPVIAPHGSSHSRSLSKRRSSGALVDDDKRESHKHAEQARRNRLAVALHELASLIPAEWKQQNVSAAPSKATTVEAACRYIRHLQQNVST

| Sequence | relative binding free energy [kcal/mol] |
| --- | --- |
| GGACGCACGTGTGGTG | -0.12 |
| TCAGGCACGTGATGGT | 0.05 |
| GAGGCCACGTGTGGGT | 0.09 |
| GGGTTCACGTGTGTAC | 0.42 |
| TTGGTCACGTGTGACA | 0.19 |
| ATGGACACGTGGGTTC | -0.04 |
| TGGTCCACGTGATTTA | 0.26 |
| GGGCGCACGTGTCGGT | 0.02 |
| TGTGACACGTGTATAT | -0.08 |
| GTGATCACGTGTAGCG | 0.27 |
| AAGATCACGTGGGTGG | -0.05 |
| AGGGTCACGTGTCTCG | 0.21 |
| CTGTTCACGTGTTAGA | 0.26 |
| GATTTCACGTGTGCTA | 0.39 |
| TTTAGCACGTGTTTTC | -0.05 |
| TTGTCCACGTGGGTAA | 0.01 |
| AGGTGCACGTGGACGT | -0.07 |
| TTGCTCACGTGGGGTA | -0.02 |
| TGAGACACGTGTTAGT | -0.04 |
| CATGACACGTGTGGCT | 0.17 |
| GGTAACACGTGGTGTC | -0.03 |
| CGTGTCACGTGTGTAG | 0.02 |
| TATATCACGTGTTTGG | 0.08 |

| Sequence | relative binding free energy [kcal/mol] |
| --- | --- |
| GTGGGCACGTGATATC | 0.08 |
| ATATACACGTGGGTAA | -0.15 |
| GTTTGCACGTGTCGTG | 0.03 |
| TGAGGCACGTGTTGTG | -0.08 |
| ATGCGCACGTGAGTGT | -0.01 |
| AAGTTCACGTGTGTTT | 0.25 |
| GCGGGCACGTGTTAGT | -0.19 |
| ATAGACACGTGAATGG | 0.38 |
| AAAGTCACGTGAGTGT | 0.26 |
| ATGGTCACGTGTAGAT | 0.23 |
| GTAAACACGTGGTAAG | 0.13 |
| ATTCCCACGTGGTGGT | -0.19 |
| GTGGACACGTGGAGAT | 0.13 |
| TTCGTCACGTGATAGG | 0.15 |
| AGGCTCACGTGTAGTG | 0.19 |
| ACGGGCACGTGGGAGC | -0.19 |
| GAGTTCACGTGATAAG | 0.42 |
| TGTTGCACGTGTATGC | 0.07 |
| GAGGCCACGTGGGAAG | 0.04 |
| TATCGCACGTGGGGAG | -0.24 |
| GGTGCCACGTGAAGTT | 0.19 |
| GGTGCCACGTGTCAGG | 0.01 |
| TGAGGCACGTGGTTTC | -0.11 |

| Sequence | relative binding free energy [kcal/mol] |
| --- | --- |
| ATTGACACGTGTCTGT | 0.01 |
| AGTGTCACGTGCTTCG | 0.06 |
| CTCTGCACGTGAGGTT | 0.13 |
| TAGGTCACGTGATGTT | 0.15 |
| CGTGCCACGTGAGGAG | 0.21 |
| ATTCACACGTGGGGGA | -0.14 |
| TTTTACACGTGCTTTT | 0.02 |
| TTATGCACGTGTACTA | -0.05 |
| AATTGCACGTGTTGTA | -0.03 |
| TATGCCACGTGTGGTG | -0.08 |
| CTATGCACGTGCGTGT | -0.04 |
| CATTTCACGTGATGGC | 0.38 |
| TTTCGCACGTGGAAGT | 0.15 |
| TGTGCCACGTGTTATA | -0.2 |
| TTGGACACGTGATGAC | 0.35 |
| TTGCTCACGTGGGTGG | 0.15 |
| CTTGTCACGTGGTAGA | 0.03 |
| CAAAGCACGTGTGTTT | 0.05 |
| CTTGACACGTGAGGTT | 0.25 |
| TAGGCCACGTGATTGT | 0.08 |
| GAAGGCACGTGTCAGT | -0.08 |
| AGTCACACGTGTTAGG | 0.09 |
| CGTGTCACGTGTTGAA | 0 |

| Sequence | relative binding free energy [kcal/mol] |
| --- | --- |
| TGGATCACGTGTAAGG | 0.1 |
| TGTGGCACGTGACTTG | -0.08 |
| GTGAACACGTGTCGGC | 0.27 |
| TTTTACACGTGTGTAC | 0.05 |
| ATTATCACGTGGCGGA | 0.09 |
| TGTGTCACGTGATCCG | 0.14 |
| GCATTCACGTGGTGAG | 0.21 |
| TGTCTCACGTGAATAA | 0.6 |
| AGTGGCACGTGCCGTG | -0.25 |
| GTTTGCACGTGCGTCA | -0.04 |
| ATTTTCACGTGGGTCC | 0.28 |
| GTGGGCACGTGTGAGT | -0.02 |
| AACGTCACGTGTTGTG | 0 |
| TATGTCACGTGAGATA | 0.28 |
| CGTGACACGTGGAAGG | -0.11 |
| TGGACCACGTGTTGCG | -0.01 |
| GTTCTCACGTGTATTA | 0.24 |
| AGGGTCACGTGATGCT | 0.24 |
| GTCTTCACGTGCGTTT | 0.4 |
| GGGGACACGTGTTATA | 0.01 |
| TGGAGCACGTGACTGG | 0.01 |
| GGCTACACGTGAGGGG | 0.29 |
| AGTATCACGTGGTTGC | 0.07 |

| Sequence | relative binding free energy [kcal/mol] |
| --- | --- |
| TTAGTCACGTGTATAG | 0.08 |
| AAAATCACGTGGGGCG | 0.22 |
| TTCGGCACGTGTCGTT | 0.08 |
| TGGGGCACGTGCTATG | -0.18 |
| GTAAGCACGTGTTTGT | 0.02 |
| GTGAACACGTGTGCGG | -0.05 |
| CTTTGCACGTGCTGTT | -0.21 |
| TGGTTCACGTGATGTA | 0.5 |
| AGTTGCACGTGGAGTG | -0.07 |
| GGTGGCACGTGGCTTG | -0.12 |
| TTGGTCACGTGTTCGT | 0.08 |
| ATGTACACGTGGTAAG | 0.08 |
| GTTGGCACGTGAATTA | 0.17 |
| AAAAGCACGTGGTTTG | -0.18 |
| CGCTTCACGTGGGCGG | 0.13 |
| ATCTTCACGTGAAGGA | 0.46 |
| TGTTTCACGTGAAGAA | 0.37 |
| GATCGCACGTGCGTGT | -0.01 |
| ACAGTCACGTGCGTGG | 0.04 |
| CGGCTCACGTGTTGGT | 0.27 |
| ACGGGCACGTGGGTAA | -0.3 |
| ATTAGCACGTGTTGAT | -0.09 |
| GTGTGCACGTGTCGTT | -0.05 |
